According to the BET-seq Pho4 binding data (Le et al. 2018):
The list shows a part of the results. These are noisy estimates, calculated here from bound and input reads.

Biological target: T1, Pho4 (S. cerevisiae) (UniProt P07270)
T1 sequence: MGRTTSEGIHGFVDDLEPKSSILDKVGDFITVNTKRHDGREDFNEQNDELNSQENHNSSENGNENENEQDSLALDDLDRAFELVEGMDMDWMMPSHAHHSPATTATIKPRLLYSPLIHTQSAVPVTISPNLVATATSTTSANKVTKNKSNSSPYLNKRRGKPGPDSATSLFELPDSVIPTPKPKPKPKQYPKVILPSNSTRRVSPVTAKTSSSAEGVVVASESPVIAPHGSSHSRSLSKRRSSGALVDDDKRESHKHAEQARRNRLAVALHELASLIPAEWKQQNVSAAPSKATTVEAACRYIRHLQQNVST
Test: relative binding free energy (BET-seq); higher = weaker binding
Conditions: reference: library average

Sequence | relative binding free energy [kcal/mol]
TGTTCCACGTGTTTAT | 0.18
TGTGGCACGTGTTGTG | -0.02
GTTGGCACGTGGATAA | 0.05
TTTGTCACGTGTCAAT | 0.08
ATCATCACGTGTGATG | 0.21
GGTATCACGTGATGTG | 0.27
GGTAGCACGTGGCTAT | -0.21
GCGGGCACGTGGAGAG | -0.17
TTTTTCACGTGTCTTG | 0.32
CGGGACACGTGCGGTA | -0.05
AATGTCACGTGTTATG | 0.1
GGATGCACGTGGGTAG | -0.21
ATAATCACGTGGTAGG | 0.07
GGGATCACGTGGAAGT | 0.17
GTCGTCACGTGTTGCA | 0.21
TTGGTCACGTGGTGGA | 0.01
TTGAGCACGTGTCTAG | -0.12
GTGATCACGTGGGTGA | 0.03
TTAGTCACGTGTCTAT | 0.01
TTTCTCACGTGTTTAC | 0.29
GGCTGCACGTGTTTGT | 0.02
GGTAGCACGTGGCGTA | -0.05
AAGTTCACGTGGTCAT | 0.32
TGAGTCACGTGTTAGC | 0.09
TGGTACACGTGGGAGT | -0.01

Sequence | relative binding free energy [kcal/mol]
TTTATCACGTGGTTTG | 0.11
GGTGTCACGTGTATTT | 0.21
TGTTTCACGTGGCAGG | 0.16
AATTTCACGTGGGCGG | 0.19
CTGGGCACGTGGATGA | -0.05
TATTCCACGTGGCTGG | 0.08
CGGAGCACGTGAGAGT | 0.2
GGGTACACGTGAGTTC | 0.25
AGGATCACGTGCTGAG | 0.19
TGCGACACGTGGAAGT | 0.12
GTAACCACGTGTGGGT | 0.1
AGGTTCACGTGTCAGA | 0.27
TTGTTCACGTGACTTA | 0.15
GGTGGCACGTGCCGGG | -0.04
TTGTACACGTGGTTTC | -0.02
CGGTGCACGTGGGCAA | -0.12
TTGGACACGTGTTATT | 0.11
GGTGGCACGTGTGGTA | 0.03
ATTGTCACGTGTAAGA | 0.12
TTGATCACGTGTTAGC | 0.09
GTCAGCACGTGTTGTG | -0.09
CTGGTCACGTGGTCTT | 0.04
AGGCTCACGTGTGGAA | 0.21
TAGTTCACGTGTAGGC | 0.28
AGGGCCACGTGTCGAG | -0.04

Sequence | relative binding free energy [kcal/mol]
AGGTACACGTGGACGT | 0.02
GATAGCACGTGGTTGC | -0.07
TTTAACACGTGGGCGA | -0.14
ACGGGCACGTGGGCGT | -0.2
GAGAGCACGTGGTGCG | -0.15
CAAGGCACGTGGTAGG | -0.19
TTAAGCACGTGGTTTT | -0.13
ATGCGCACGTGTGGTC | -0.05
TAGTGCACGTGGGACT | -0.18
TTCTGCACGTGTTATA | -0.11
TTATTCACGTGTGTCC | 0.29
CGTGTCACGTGGCGGG | 0.04
CTGTGCACGTGCGGGC | 0
TGGAGCACGTGAATGC | 0.23
TGGAGCACGTGATGGC | 0.08
CTTTTCACGTGTAAAG | 0.33
AGCGTCACGTGAGTAG | 0.2
CGGGGCACGTGAGACG | 0.13
ATGCGCACGTGGTATT | -0.13
TGGATCACGTGGGACG | 0.11
TGTGGCACGTGAGAGA | 0.09
TTGTACACGTGTGAGA | 0.2
TGGAACACGTGAACGG | 0.52
TAGGACACGTGCTTGG | -0.04
TACGGCACGTGGTTGA | -0.22

Sequence | relative binding free energy [kcal/mol]
TGTGTCACGTGAGATG | 0.35
ATGATCACGTGGGGAT | 0
GTGTTCACGTGAACAT | 0.52
CAGATCACGTGTGGTC | 0.34
GTGTACACGTGGCAGG | -0.08
TTGATCACGTGAGCTT | 0.29
GTGCTCACGTGGAGTT | 0.14
GTGGGCACGTGTGGCC | 0.12
GGGGTCACGTGAGTGA | 0.35
TGATTCACGTGATGCA | 0.28
GTATACACGTGAGCGT | 0.08
TCAGTCACGTGGTGTG | -0.16
TATTGCACGTGGGCTT | -0.18
ATGGACACGTGGTTAA | -0.04
TGTATCACGTGTGGTG | 0.25
TGTTTCACGTGCAGCG | 0.23
ATAGGCACGTGGTAGA | -0.31
GGTTGCACGTGCGTGA | 0.06
TTTTACACGTGCTTCA | 0.18
CGATGCACGTGGTAGT | -0.1
AATGGCACGTGCAAGG | -0.01
TGAATCACGTGCATGT | 0.06
AGTGCCACGTGTTATG | -0.24
TGTGGCACGTGGTTTA | -0.12
TAGTACACGTGTGGCG | 0.06

Sequence | relative binding free energy [kcal/mol]
AGTTGCACGTGAGAGG | 0.21
ATGTGCACGTGTGAGT | 0.02
CGTTCCACGTGAGGAT | 0.43
GGATACACGTGGTAGG | 0.12
CAGTTCACGTGTTCGT | 0.32
CTCGTCACGTGTTTAT | 0.2
GTATTCACGTGGGTGC | 0.16
TGGCACACGTGATGGA | 0.42
TTTTGCACGTGCTTGT | 0.1
TATAGCACGTGTTGGA | -0.03
TTAGGCACGTGCTGTG | -0.16
AGTGGCACGTGTTTGT | -0.04
GAGATCACGTGTTAGG | 0.28
CGGGTCACGTGTGCAG | 0.1
CGGAGCACGTGGGGCC | -0.09
AGGGTCACGTGAATCG | 0.24
TAGAGCACGTGGGTCA | -0.26
TGAGTCACGTGAATTG | 0.29
GTACGCACGTGCTGTG | 0.01
AGGTTCACGTGAAAGA | 0.53
AGTGTCACGTGCCTTG | -0.05
GGGGTCACGTGTTCCT | 0.23
AGGGGCACGTGGTACA | -0.16
GAAAACACGTGTGTAT | 0.18
AGGGCCACGTGGGAGC | -0.18

Sequence | relative binding free energy [kcal/mol]
TATTTCACGTGAGATG | 0.4
TGGGACACGTGGGGAG | -0.03
GTCGACACGTGTGGAG | 0.2
GAGTTCACGTGAGATA | 0.51
AAATGCACGTGTCGGT | -0.01
TGTCTCACGTGATATG | 0.18
TCGGTCACGTGGTTCG | 0.14
AAGGTCACGTGGGGCG | -0.07
TAACTCACGTGAAGGG | 0.32
TGTCACACGTGTCGGG | 0.2
GTGTTCACGTGCGGCA | 0.24
TATATCACGTGTTAGA | 0.18
TCAGGCACGTGCTGTG | -0.11
TTCGGCACGTGATGAT | -0.09
TACAGCACGTGGTTTG | -0.07
TGCTGCACGTGTGAGA | 0.11
AAAGGCACGTGTTGTG | -0.21
ATTGTCACGTGTATTA | 0.12
AGAGTCACGTGATGAT | 0.35
GTGTACACGTGTACTT | 0.16
TGTTGCACGTGCGGTC | 0.06
